Results published in PubChem BioAssay AID743279 (National Center for Advancing Translational Sciences (NCATS), 2014).
About 17,000 (4.7%) of roughly 360,000 compounds were called active. This list was built around the results that the source calls inconclusive (neither active nor inactive); the mix of calls is not that of the screen. No stated cut-off is given here; in the data, active means activity change below about -50%; inconclusive means mostly about -30% to -49%; inactive means weaker than that.

Assay: qHTS for Inhibitors of Inflammasome Signaling: IL-1-beta AlphaLISA Primary Screen
Conditions: THP-1 LPS/ATP IL-1B secretion, 16 h; at 57.5 µM, stronger effect = lower value
How it was run: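 THP-1 cells pretreated 1 hr with compounds (up to 57.5 uM final), then stimulated with LPS (250 ng/mL final) plus ATP (1.25 mM final); secreted IL-1B measured by AlphaLISA after 16 hr, decreased signal indicating inhibition.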
On the % scale 0 is the no-effect control and ±100 the full control effect.

SMILES	activity change
Cc1ccc2c(c1)N(CC(=O)Nc1ccccc1F)C(=O)CO2	inactive: 3.33%
COc1ccc2c(c1)c[n+](C)c1c3cc(OC)c(OC)cc3ccc21	inconclusive: -43.3%
COc1ccccc1CN(C)C(=O)c1ccc(COc2ccccc2)cc1	active: -75.7%
COc1ccc(CNCCCNCc2ccc(OC)c(OC)c2)cc1OC	inconclusive: -32%
CCn1cc(C(=O)NCCN(CC(C)C)CC(C)C)c(=O)c2cc(S(=O)(=O)N3CCOCC3)ccc21	inconclusive: -38.9%
O=C(Cc1ccc(Cl)cc1)Nc1ccncc1	inactive: 1.87%
COc1ccc(C(=O)c2cc(C(C)=O)c(Nc3ccccc3)s2)cc1	inconclusive: -43.7%
COc1cccc(C(=O)c2c(-c3ccccc3)ncc3cc(OC)c(OC)cc23)c1	inconclusive: -43.1%
CC(=O)Nc1ccc(S(=O)(=O)Oc2cccc(N3C(=O)C4CC=CCC4C3=O)c2)cc1 (stereo unspecified)	inactive: 50.5%
COc1ccccc1N(C)S(=O)(=O)c1ccc(Cl)c(C(=O)NCCCN2CCOCC2)c1	inactive
O=C1C=CC(=O)N1c1ccccc1N1C(=O)C=CC1=O	active: -97.8%
COc1ccc(/C=C/C(=O)NC(=S)N2CCN(C)CC2)cc1	inconclusive: -46.3%
C=CCS(=O)(=O)c1nc2ccccc2s1	active: -115%
COc1ccccc1NC(=S)N1CCN(c2cccc(C)c2C)CC1	inconclusive: -44.1%
O=C(NCc1ccc2c(c1)OCO2)c1cc(-c2ccccc2)nn1CC1CC(c2cccnc2)=NO1 (stereo unspecified)	inactive: -0.828%
O=C(CCCN1C(=O)/C(=C/c2cccc(Br)c2)SC1=S)Nc1ccccn1	inconclusive: -45.3%
O=C(Nc1c(-c2ccc3c(c2)OCO3)[nH][nH]c1=O)c1cnccn1	inactive: 24.1%
CC(C)Oc1ccc(CN2CCCC(CO)(Cc3ccccc3)C2)cc1CO (stereo unspecified)	active: -53.7%
CCCC(=O)Nc1sc(Cc2ccccc2)c(C)c1C(N)=O	inconclusive: -38.6%
COc1ccc(NC(=O)CSc2nnc(Cc3ccccc3)c(=O)n2N)cc1OC	inactive: -22.7%
COc1cc2c(cc1OC)C(c1cc3ccccc3oc1=O)=NC(C)(C)C2	inconclusive: -45.8%
COc1cccc(-c2c(C(=O)N/N=C/c3ccc(C)o3)nnn2-c2nonc2N)c1	inconclusive: -43.2%

SMILES	activity change
COc1ccccc1Cc1nc(-c2cccnc2)no1	inconclusive: -31.5%
COc1cc(C)c(Br)cc1S(=O)(=O)N1CCCC1	inactive: 17.4%
Cc1cc(Cl)c(OCCCn2ccnc2)c(Br)c1	active: -72.2%
Cc1ccc(NC(=O)Cn2nc(-c3ccco3)ccc2=O)cc1Cl	inconclusive: -35.1%
Cc1ccc(OC(C)C(=O)Nc2ccncc2)cc1C (stereo unspecified)	inactive: -10.5%
COC(=O)[C@@]1(Cc2ccc(F)cc2)[C@H]2c3cc(C(=O)N(C)C)n(C[C@H](O)CO)c3C[C@H]2CN1C(=O)c1ccccc1	inactive: -11.1%
COC(=O)COc1cccc2c(=O)n(CC(=O)N3CCC(C)CC3)ccc12	active: -60.8%
COc1ccc(Nc2nc(-c3ccccc3)nc3ccccc23)cc1S(=O)(=O)N1CCOCC1	active: -73.8%
C/C(=N\Nc1ccc([N+](=O)[O-])cc1)c1ccc(-n2nncc2C)cc1	inconclusive: -35.2%
COc1ccc(-c2nn(-c3ccccc3)cc2/C=N/n2cnnc2)cc1OC	inconclusive: -43.5%
COc1cc(F)ccc1-c1cc(C(=O)NCc2cccc(Cl)c2)[nH]n1	inconclusive: -39%
CCCCCc1cc(=O)oc2c(C(CCN(CC)CC)c3ccc(OC)cc3)c(OC)cc(OC)c12 (stereo unspecified)	inconclusive: -36.5%
CC(C)CCNC(=O)C1CCN(S(=O)(=O)c2ccc3c(c2)CC(C)N3C(=O)C2CCC2)CC1 (stereo unspecified)	inconclusive: -39.5%
CCCOc1ccc2c(=O)c(-c3cc(C(=O)OC)oc3C)c(C)oc2c1	inconclusive: -32.8%
CC(Nc1ccc(F)cc1)=[N+](C)CCNS(=O)(=O)c1ccc(Cl)cc1	inconclusive: -30.8%
Cc1ccc(Cc2c(-c3cccc(Br)c3)nc3c(C)cc(Br)cn23)cc1	inactive: 8.16%
COc1cc(C(=O)OCC(C)=O)cc(NC(=O)c2ccco2)c1OC	inconclusive: -45.1%
Cc1cccc(/C=C/C(=O)c2ccc(NC3=NCCCS3)cc2)c1	active: -86.7%
O=C1COc2ccc(C(=O)COC(=O)c3cc(S(=O)(=O)N4CCOCC4)ccc3F)cc2N1	active: -70.2%
Cc1ccc(S(=O)(=O)Oc2ccccc2/C=N/NC(=O)c2nn(C)cc2[N+](=O)[O-])cc1	inconclusive: -30.8%
Cc1ccc(NC2=C(Cl)C(=O)OC2OC(=O)c2ccc(C)cc2)cc1 (stereo unspecified)	active: -102%
Cc1ccc(NC2=C(Cl)C(=O)OC2OC(C)C)c(C)c1 (stereo unspecified)	inconclusive: -33.7%

SMILES	activity change
N#Cc1ccc(-n2c(-c3ccccc3)nnc2-c2ccccc2)cc1C#N	active: -73.6%
CCCc1nc(SCC(=O)N2c3ccccc3CC2C)c2c(C)c(C)sc2n1 (stereo unspecified)	inconclusive: -43.5%
O=C(c1ccc(CS(=O)c2ccc(Br)cc2)o1)N1CCN(C2CCCCC2)CC1 (stereo unspecified)	inconclusive: -40.1%
Cc1ccccc1-c1cc(C(=O)NCc2ccc(OC(F)(F)F)cc2)nn1CC1CC(c2cccc([N+](=O)[O-])c2)=NO1 (stereo unspecified)	inconclusive: -43.3%
O=c1c2sccc2nc(SCc2ccc([N+](=O)[O-])cc2)n1Cc1ccccn1	inconclusive: -37.7%
C/C(=N/NC(=O)CNS(=O)(=O)c1ccc(C)cc1)c1cccc([N+](=O)[O-])c1	inactive: 16.5%
COc1ccc(/C=N/N=C/c2ccc(OC)cc2)cc1	inconclusive: -30.9%
CCc1ccc(OCCCCN(C)Cc2ccccc2)cc1	inconclusive: -30.2%
COc1ccccc1NC(=O)COc1ccccc1C(=O)Nc1ccccc1	inconclusive: -33.4%
Cc1cc(N2C3CCC2CC(O)(c2ccc(F)cc2)C3)nc(-c2ccccc2)n1 (stereo unspecified)	active: -56.2%
COc1ccc(COCC(CC(C)C)N2CCN(C(=O)c3cccc(C(F)(F)F)c3)CCC2=O)cc1 (stereo unspecified)	inconclusive: -31.9%
CCOC(=O)C1CCCN(C(=O)c2ccc3c(c2)N(C)C(=O)/C(=C/c2ccccc2Cl)S3)C1 (stereo unspecified)	active: -68%
CN(C)CCN(Cc1cccs1)c1ccccn1	inactive: -8.61%
COc1ccccc1NC(=O)CSc1nnnn1Cc1ccccc1	inactive: -2.59%
CCOc1ccc(N(CC(=O)NC2CCCC2)C(=O)c2ccc(C)s2)cc1	inconclusive: -34.6%
COc1ccc(-n2nc3c(N4CCC(C(=O)N5CCC(C)CC5)CC4)nnc(C)c3c2C)cc1	inconclusive: -34.6%
O=C(c1cc2nc(-c3ccccc3)cc(C(F)(F)F)n2n1)N1CCN2CCCC2C1 (stereo unspecified)	inconclusive: -35.9%
C/C=C(\C)CN1CCC(n2nccc2NC(=O)CCCc2ccccc2)CC1	inactive: 25.3%
COc1cc(N/N=C(\C)c2ccc(N)cc2)nc(-c2ccccc2)n1	inconclusive: -40.5%
Fc1cccc(Nc2nc(N3CCOCC3)nc(N3CCOCC3)n2)c1	inconclusive: -45.5%
COc1ccc(-c2ccc(C(=O)NCC(C)C)c3occc23)c(C)c1	inconclusive: -49%
COc1ccc(NC(=O)CN(C)C(=O)c2ccc3[nH]c4c(c3c2)CC(C)CC4)cc1 (stereo unspecified)	inconclusive: -39.1%

SMILES	activity change
NC(c1ccccc1)c1csc(Nc2ccc(C(=O)c3ccccc3)cc2)n1 (stereo unspecified)	inconclusive: -35.1%
COc1cccc(NC(=S)N(CCc2c(C)[nH]c3ccccc23)Cc2ccco2)c1	inconclusive: -38.9%
CN(C)CCCN=c1cc(-c2ccccc2)oc2ccc(Cl)cc12	active: -50.2%
CCCC[n+]1ccn(-c2nc3ccccc3nc2[N-]S(=O)(=O)c2ccccc2)c1	inactive: 3.29%
COc1cc(/C=C/c2ccc3cccc(O)c3n2)cc(OC)c1OC	active: -102%
Cc1ccccc1S(=O)(=O)N1[C@@H](c2ccccc2)C(C(=O)O)=CC[C@H]1c1ccc(Cl)cc1	inactive: 13%
COc1ccc(NC(=O)COc2ccc(/C=C/c3cc[n+](C)cc3)cc2OC)cc1	active: -53.6%
CCCNCC1C(Oc2ccc(Cl)cc2Cl)C(=O)N1c1cccc(C)c1C (stereo unspecified)	active: -53.1%
C/C(=N\NC(=O)C1CC1)c1ccc(C(C)(C)C)cc1	inactive: 19.9%
Cc1cccc(NC(=O)c2ccc(C(=O)c3ccccc3)cc2)n1	inconclusive: -39.1%
N#Cc1ccc(N2CCN(c3ccc(F)cc3)CC2)cc1	inconclusive: -39%
CN1C(=O)c2cccc(NCCCCCCN3C(=O)c4ccccc4C3=O)c2C1=O	inconclusive: -49.4%
O=C(Cn1c(=O)n(Cc2ccccc2)c(=O)c2ccccc21)NCc1ccco1	inconclusive: -43.6%
CCCn1c(C(C)Nc2nc(-c3ccc(Cl)c([N+](=O)[O-])c3)cs2)nc2ccccc21 (stereo unspecified)	inactive: -15.9%
CCCN(CCC)C(=O)CC(c1ccc(F)cc1)c1ccco1 (stereo unspecified)	inconclusive: -45.8%
O=C(COc1cc2oc(=O)c3c(c2cc1Cl)CCC3)Nc1ccc(CN2CCOCC2)cc1	inactive: -2.76%
CC1CCCN(CCCNC(=O)c2ccc(CS(=O)(=O)c3c(Cl)cccc3Cl)o2)C1 (stereo unspecified)	inconclusive: -39.9%
Cc1cccnc1C(NC(=O)C1CCN(Cc2cn(C)c3ccccc23)CC1)c1ccc(Cl)cc1 (stereo unspecified)	inconclusive: -30.2%
CCOc1ccccc1NC(=O)Nc1ccc2c(c1)OCO2	inconclusive: -30.2%
CN(C)S(=O)(=O)c1ccc(N2CCCC2)c(C(=O)Nc2ccc(Br)cc2F)c1	inconclusive: -40.4%
